# ± gives the standard deviation of the averaged measurements. The list shows a part of the results.
# Test system: PfAP2-G AP2 domain (GST-tagged)
# Assay: gcPBM binding intensity (ln(normalized median fluorescence intensity)); higher = stronger DNA binding
# In short: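 Binding of GST-tagged P. falciparum DNA-binding domains, expressed in E. coli and used at about 25 μg on average, was carried out for 1 h in 1× PBS containing 1% milk, 0.2 mg/ml BSA, 0.5% salmon testes DNA and 0.03% Triton X-100. The target was an Agilent 4 × 180k array of primer-extended double-stranded 36-bp intergenic genomic probes plus negative controls, read with Alexa488 anti-GST antibody at 488 nm. Binding intensity is the highest Masliner-normalised natural-log median intensity across replicate spots of either probe orientation.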
row,Sequence,gcPBM binding intensity (ln)
1,CTATTATAATATTTTACACACCATGTAAGATATATA [CACACA_site7492],9.935 ± 0.064
2,TTTATTTTATCATTTGCACACGCACCCAGACATAAA [CACACA_site4347],10.6 ± 0.57
3,TTTTTTCATTAGAAAACATGCAAATGTTTTTCACTT [TGCATGCA_site127],9.71 ± 0.2
4,TTTATAAACAAATGAACACACAAACATATATATATA [CACACA_site5713],10.04 ± 0.078
5,ATTCTTTTTTTTTGGAAATGTATTTTTATGTTTTGT [TGCATGCA_negctrl_site426],9.81 ± 0.085
6,ATTTTAGATGAAAAAGCACACAACATATATATATAT [CACACA_site2295],10.2 ± 0.43
7,CTCTTATGCTAGGAAGTGCAATAGTATGGGTACCAC,11.5 ± 0.95
8,TCATTTTATTTTTTCACACACACATATATATATATA [CACACA_site3333],10.2 ± 0.28
9,TAATATATATAAACATGTACAAATCAAAAACAAAAG [XGTACX_site4076],11 ± 0.41
10,ACGTTGAAGAAATACACATGCATATTCTATATATAT [TGCATGCA_site76],9.83 ± 0.057
11,TATATTTTTTAAAAAGCATGCAAAAAATAATGATCA [TGCATGCA_site48],9.89 ± 0.33
12,GTATAATATGAACACACACACACACGCAAAAAAAAA [CACACA_site7036],10.5 ± 0.39
13,TTAACTCAAGAGTGTACACATATATATATATATATA [CACACA_site4334],11.6 ± 1
14,AATACCCATTTTAGTACACACTTAAAAAATTATTTT [CACACA_site5611],11.6 ± 1.1
15,TTGCCCATTTCATTAACACACAAATGTTTATATTCT [CACACA_site4569],10.17 ± 0.071
16,TGTAAAACTGAAAAGGGTACATATAAATATATATAT [XGTACX_site69],11.2 ± 0.79
17,ATTTATTTTTATATAACACACAAAGTATAATATAAC [CACACA_site3582],10 ± 0.21
18,ATATATTTATATTTATGTACATATCTTTATTTACGT [XGTACX_site6800],11.2 ± 0.55
19,ATATATATATCGATCTGTACATATATTTATAGACAT [XGTACX_site4236],11.2 ± 0.53
20,TGCTTCCTTAGGAATGTACACACATATATAATATGT [CACACA_site8048],11.2 ± 0.49
21,ATTAGTAAGAATCATTGTACATTATAATATGTGGTA [XGTACX_site1341],10.7 ± 0.5
22,TTTTTAAAAAAGTAAAGTACAAAAAAAAGGAATATC [XGTACX_site588],11.3 ± 0.53
23,AAAGAAATACAATGATGTACATTTAAAAAAAATTAA [XGTACX_site4324],11 ± 0.67

row,Sequence,gcPBM binding intensity (ln)
1,ACAAGAAAATATATTTGTACATATATAATTTTATTT [XGTACX_site548],10.8 ± 0.47
2,TTGACCTTAAGAAGGTTGCACTAATCATTCAAAGTT,10.1 ± 0.17
3,CTTTATTATAAGATTACACACATGTGTTATAATTTA [CACACA_site3169],9.86 ± 0.042
4,CCATTTATTATTTGGGGTACATTTAATTAATATTTT [XGTACX_site5940],11.5 ± 1
5,TAATTTAGTATCTTTACATGCGGGCATTATGTCATA [TGCATGCA_site167],10.105 ± 0.007
6,ATTTAAGGGGTGTATGCACACGACTATTCCGTATGA [CACACA_site4738],10.23 ± 0.092
7,AATATTTTAAGGCACACACACAAAAAAAAAAAAAAA [CACACA_site2890],10.2 ± 0.49
8,ATAGGCACTTTTTGCACACGTATGAATAACAAAATA [CACACA_site5069],10.6 ± 0.25
9,TGAAAATTTTAATGAGGAAATAAAATAAATATAATA [GTGCAC_negctrl_site159],9.86 ± 0.16
10,TTTATTAATAGACACACACACACACGCAAAATAAAA [CACACA_site6255],10.5 ± 0.45
11,CCAAAGGGGGTATACTGTACATATAGTGGTTATATA [XGTACX_site1515],11.3 ± 0.73
12,AATGAAAAATGTATCGTTAAAGGGTATCTTAAGGAT [XGTACX_negctrl_site222],10.1 ± 0.15
13,CCAAAGAAATATAATACACACAAGAATATATTGGAT [CACACA_site6018],9.935 ± 0.049
14,AAGTATTACAACCACACACACACCTATATATTATAT [CACACA_site4158],10.09 ± 0.099
15,ACTTGTTTTCAATGTAAAATACAATTTTCATTTATT [CACACA_negctrl_site435],9.86 ± 0.11
16,AAAGGAAATTAAAATTGATTACATATATAAAAAAAC [XGTACX_negctrl_site196],9.93 ± 0.014
17,AAAAAAAAAAGACACACACACAAATACAAATACATA [CACACA_site6334],10.1 ± 0.13
18,TTTTAAACAAAAAATTGTACAATTAGTGTATAATCC [XGTACX_site778],11 ± 0.69
19,AATTTAATATAATGCACACATAAAAAAAAAAAAAAA [CACACA_site123],9.92 ± 0.52
20,AACACAAATAAGTATTTGGATTATATTACATTTATA [CACACA_negctrl_site465],9.71 ± 0.22
21,ATAAAAATAAATAAATGTACATATATATATATATAT [XGTACX_site1277],11.1 ± 0.58
22,TAAATAGGAAAACCTATACACACTTTAAAAAAAATA [CACACA_site1621],9.845 ± 0.064

# Reference: the supplement of paper PMC11417369
